# Reference: the supplement of paper PMC8728848
# The list shows a part of the results.
# B1: SpnanA (Streptococcus pneumoniae), P62575 (protein)
# chain: MVIEKEDVETNASNGQRVDLSSELDKLKKLENATVHMEFKPDAKAPAFYNLFSVSSATKKDEYFTMAVYNNTATLEGRGSDGKQFYNNYNDAPLKVKPGQWNSVTFTVEKPTAELPKGRVRLYVNGVLSRTSLRSGNFIKDMPDVTHVQIGATKRANNTVWGSNLQIRNLTVYNRALTPEEVQKRS
# What was measured:
# Assay in all cases: glycan array binding signal (z-score within array); higher = stronger binding
# Settings in all cases: glycan notation: IUPAC condensed, linker removed
# [1] = biological target: Man(a1-3)[Man(a1-6)]Man(a1-6)[Man(a1-2)Man(a1-3)]Man(b1-4)GlcNAc(b1-4)GlcNAc
# Outline: (§1)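 Negative Z-scores can be read as non-binding. The Z-score is calculated within each array and then averaged across arrays of one protein sequence at different concentrations or buffers and across linkers. Arrays, 3228 in all, were curated from the Consortium for Functional Glycomics database and kept only where the protein sequence was available.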
# [2] = biological target: Man(a1-3)[Man(a1-6)]Man(a1-6)[Man(a1-3)]Man
# Outline: as §1
# [3] = biological target: Man(a1-3)[Man(a1-6)]Man(a1-6)[Man(a1-3)]Man(b1-4)GlcNAc(b1-4)GlcNAc
# Outline: as §1
# [4] = biological target: Man(a1-3)[Man(a1-6)]Man(b1-4)GlcNAc(b1-4)GlcNAc
# Outline: as §1
# [5] = biological target: Man(a1-3)[Man(a1-6)]Man(b1-4)GlcNAc(b1-4)[Fuc(a1-6)]GlcNAc
# Outline: as §1
# Man(a1-6)Man = biological target: Man(a1-6)Man
# Outline: as §1
# Man(b1-4)GlcNAc = biological target: Man(b1-4)GlcNAc
# Outline: as §1
# Neu5Ac(a2-3)Gal = biological target: Neu5Ac(a2-3)Gal
# Outline: as §1
# [6] = biological target: Neu5Ac(a2-3)Gal(b1-3)GalNAc
# Outline: as §1
# [7] = biological target: Neu5Ac(a2-3)Gal(b1-3)GalNAc(b1-3)Gal(a1-4)Gal(b1-4)Glc
# Outline: as §1
# [8] = biological target: Neu5Ac(a2-3)Gal(b1-3)GalNAc(b1-4)[Neu5Ac(a2-3)]Gal(b1-4)Glc
# Outline: as §1
# [9] = biological target: Neu5Ac(a2-3)Gal(b1-3)GalNAc(b1-4)[Neu5Ac(a2-8)Neu5Ac(a2-3)]Gal(b1-4)Glc
# Outline: as §1
# [10] = biological target: Neu5Ac(a2-3)Gal(b1-3)GalNAc6S
# Outline: as §1
# [11] = biological target: Neu5Ac(a2-3)Gal(b1-3)GlcNAc
# Outline: as §1
# [12] = biological target: Neu5Ac(a2-3)Gal(b1-3)GlcNAc(b1-2)Man(a1-3)[GlcNAc(b1-4)][Neu5Ac(a2-3)Gal(b1-3)GlcNAc(b1-2)Man(a1-6)]Man(b1-4)GlcNAc(b1-4)GlcNAc
# Outline: as §1
# [13] = biological target: Neu5Ac(a2-3)Gal(b1-3)GlcNAc(b1-2)Man(a1-3)[Neu5Ac(a2-3)Gal(b1-3)GlcNAc(b1-2)Man(a1-6)]Man(b1-4)GlcNAc(b1-4)GlcNAc
# Outline: as §1
# [14] = biological target: Neu5Ac(a2-3)Gal(b1-3)GlcNAc(b1-3)Gal(b1-3)GlcNAc
# Outline: as §1
# [15] = biological target: Neu5Ac(a2-3)Gal(b1-3)GlcNAc(b1-3)Gal(b1-4)GlcNAc
# Outline: as §1
# [16] = biological target: Neu5Ac(a2-3)Gal(b1-3)GlcNAc(b1-3)GalNAc
# Outline: as §1
# [17] = biological target: Neu5Ac(a2-3)Gal(b1-3)GlcNAc(b1-6)GalNAc
# Outline: as §1
# [18] = biological target: Neu5Ac(a2-3)Gal(b1-3)GlcNAc6S
# Outline: as §1
# [19] = biological target: Neu5Ac(a2-3)Gal(b1-3)[Fuc(a1-4)]GlcNAc
# Outline: as §1
# [20] = biological target: Neu5Ac(a2-3)Gal(b1-3)[Fuc(a1-4)]GlcNAc(b1-3)Gal(b1-3)[Fuc(a1-4)]GlcNAc
# Outline: as §1
# [21] = biological target: Neu5Ac(a2-3)Gal(b1-3)[Fuc(a1-4)]GlcNAc(b1-3)Gal(b1-4)[Fuc(a1-3)]GlcNAc
# Outline: as §1
# [22] = biological target: Neu5Ac(a2-3)Gal(b1-3)[Neu5Ac(a2-3)Gal(b1-4)]GlcNAc
# Outline: as §1
# [23] = biological target: Neu5Ac(a2-3)Gal(b1-3)[Neu5Ac(a2-6)]GalNAc
# Outline: as §1
# [24] = biological target: Neu5Ac(a2-3)Gal(b1-3)[Neu5Ac(a2-6)]GlcNAc(b1-3)[Fuc(a1-3)[Gal(b1-4)]GlcNAc(b1-6)]Gal(b1-4)Glc
# Outline: as §1
# Neu5Ac(a2-3)Gal(b1-4)Glc = biological target: Neu5Ac(a2-3)Gal(b1-4)Glc
# Outline: as §1
# [25] = biological target: Neu5Ac(a2-3)Gal(b1-4)GlcNAc
# Outline: as §1
# [26] = biological target: Neu5Ac(a2-3)Gal(b1-4)GlcNAc(b1-2)Man
# Outline: as §1
# [27] = biological target: Neu5Ac(a2-3)Gal(b1-4)GlcNAc(b1-2)Man(a1-3)[GlcNAc(b1-2)Man(b1-4)GlcNAc(b1-2)Man(a1-6)]Man(b1-4)GlcNAc(b1-4)GlcNAc
# Outline: as §1
# [28] = biological target: Neu5Ac(a2-3)Gal(b1-4)GlcNAc(b1-2)Man(a1-3)[Neu5Ac(a2-3)Gal(b1-4)GlcNAc(b1-2)Man(a1-6)]Man(b1-4)GlcNAc(b1-4)[Fuc(a1-6)]GlcNAc
# Outline: as §1
# [29] = biological target: Neu5Ac(a2-3)Gal(b1-4)GlcNAc(b1-2)Man(a1-3)[Neu5Ac(a2-6)Gal(b1-4)GlcNAc(b1-2)Man(a1-6)]Man(b1-4)GlcNAc(b1-4)GlcNAc
# Outline: as §1
# [30] = biological target: Neu5Ac(a2-3)Gal(b1-4)GlcNAc(b1-2)[Neu5Ac(a2-3)Gal(b1-4)GlcNAc(b1-6)]Man(a1-6)[Neu5Ac(a2-3)Gal(b1-4)GlcNAc(b1-2)Man(a1-3)]Man(b1-4)GlcNAc(b1-4)GlcNAc
# Outline: as §1
# [31] = biological target: Neu5Ac(a2-3)Gal(b1-4)GlcNAc(b1-3)Gal
# Outline: as §1
# [32] = biological target: Neu5Ac(a2-3)Gal(b1-4)GlcNAc(b1-3)Gal(b1-3)GlcNAc
# Outline: as §1
# [33] = biological target: Neu5Ac(a2-3)Gal(b1-4)GlcNAc(b1-3)Gal(b1-4)GlcNAc
# Outline: as §1
binder,measurement,setting,value
B1,glycan array binding signal (z-score),[1],-0.212
same,glycan array binding signal (z-score),[2],-0.261
same,glycan array binding signal (z-score),[3],-0.271
same,glycan array binding signal (z-score),[4],-0.292
same,glycan array binding signal (z-score),[5],0.062
same,glycan array binding signal (z-score),Man(a1-6)Man,-0.265
same,glycan array binding signal (z-score),Man(b1-4)GlcNAc,-0.307
same,glycan array binding signal (z-score),Neu5Ac(a2-3)Gal,1.62
same,glycan array binding signal (z-score),[6],1.42
same,glycan array binding signal (z-score),[7],-0.024
same,glycan array binding signal (z-score),[8],1.27
same,glycan array binding signal (z-score),[9],-0.157
same,glycan array binding signal (z-score),[10],3.01
same,glycan array binding signal (z-score),[11],3.08
same,glycan array binding signal (z-score),[12],-0.212
same,glycan array binding signal (z-score),[13],1.09
same,glycan array binding signal (z-score),[14],1.04
same,glycan array binding signal (z-score),[15],1.17
same,glycan array binding signal (z-score),[16],0.475
same,glycan array binding signal (z-score),[17],1.62
same,glycan array binding signal (z-score),[18],-0.073
same,glycan array binding signal (z-score),[19],1.65
same,glycan array binding signal (z-score),[20],0.147
same,glycan array binding signal (z-score),[21],0.04
same,glycan array binding signal (z-score),[22],6.34
same,glycan array binding signal (z-score),[23],3.24
same,glycan array binding signal (z-score),[24],-0.083
same,glycan array binding signal (z-score),Neu5Ac(a2-3)Gal(b1-4)Glc,0.479
same,glycan array binding signal (z-score),[25],0.992
same,glycan array binding signal (z-score),[26],2.64
same,glycan array binding signal (z-score),[27],0.252
same,glycan array binding signal (z-score),[28],0.895
same,glycan array binding signal (z-score),[29],0.022
same,glycan array binding signal (z-score),[30],0.022
same,glycan array binding signal (z-score),[31],2.6
same,glycan array binding signal (z-score),[32],0.141
same,glycan array binding signal (z-score),[33],0.146
